The values that follow come from the supplement of paper PMC5998384.

Data set [1] concerns HeLa Kyoto. The experiment in a line: solubility in G1/S (NP-40 vs SDS abundance) (log2 ratio); higher = more soluble. The following applies: cell cycle stage: G1/S.
In data set [2] the test system is HeLa Kyoto. The experiment in a line: melting temperature (median over replicates), in situ; higher = more thermally stable.
Data set [3] deals with HeLa Kyoto. The experiment in a line: thermal stability score vs G1/S (z-score of summed log2 fold changes over temperatures); higher = more thermally stable than in G1/S.
Data set [4] relates to HeLa Kyoto. The data set can be described thus: solubility change mitosis vs G1/S (difference of NP-40 vs SDS log2 ratios) (log2 ratio difference); higher = more soluble in mitosis.
The mark [5] stands for this setting: cell cycle stage: early G1 (4.5 h after nocodazole release).
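Wherever melting temperature (median over replicates), in situ is given: HeLa Kyoto cells synchronized by double thymidine or nocodazole block, proteins quantified by TMT10plex mass spectrometry, three independent biological replicates.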
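Wherever solubility change mitosis vs G1/S (difference of NP-40 vs SDS log2 ratios) is given: synchronized HeLa Kyoto cells (double thymidine block for G1/S, nocodazole release for mitosis), protein amounts in NP-40 versus SDS lysates quantified by mass spectrometry, three biological replicates.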
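Wherever solubility in G1/S (NP-40 vs SDS abundance) is given: HeLa Kyoto cells arrested at G1/S by double thymidine block, proteins quantified by TMT10plex mass spectrometry in mild NP-40 versus SDS extracts, three biological replicates.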
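Wherever thermal stability score vs G1/S (z-score of summed log2 fold changes over temperatures) is given: synchronized HeLa Kyoto cells, proteins quantified by TMT10plex mass spectrometry, three biological replicates, mitosis taken 0.5 h after nocodazole release, G1/S directly after double thymidine block.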

On to STAT3 (sequence left out), for which the “solubility in G1/S (log2)” value with HeLa Kyoto [1] is -0.0459. Moreover, the melting temperature with HeLa Kyoto [2] (cell cycle stage: G1/S) was determined as 48.8 °C; in the data set on HeLa Kyoto [2] (cell cycle stage: mitosis), 49.8 °C. The thermal stability score in the data set on HeLa Kyoto [3] (setting [5]) worked out at 0.472; in the data set with HeLa Kyoto [3] (cell cycle stage: mitosis) it was 2.7. Moreover, in the data set with HeLa Kyoto [4], the “solubility change mitosis (log2)” value was -0.168.
For “MSFPPHLNRPPMGIPALPPGIPPPQFPGFPPPVPPGTPMIPVPMSIMAPAPTVLVPTVSMVGKHLGARKDHPGLKAKENDENCGPTTTVFVGNISEKASDMLIRQLLAKCGLVLSWKRVQGASGKLQAFGFCEYKEPESTLRALRLLHDLQIGEKKLLVKVDAKTKAQLDEWKAKKKASNGNARPETVTNDDEEALDEETKRRDQMIKGAIEVLIREYSSELNAPSQESDSHPRKKKKEKKEDIFRRFPVAPLIPYPLITKEDINAIEMEEDKRDLISREISKFRDTHKKLEEEKGKKEKERQEIEKERRERERERERERERREREREREREREREKEKERERERERDRDRDRTKERDRDRDRERDRDRDRERSSDRNKDRSRSREKSRDREREREREREREREREREREREREREREREREREREKDKKRDREEDEEDAYERRKLERKLREKEAAYQERLKNWEIRERKKTREYEKEAEREEERRREMAKEAKRLKEFLEDYDDDRDDPKYYRGSALQKRLRDREKEMEADERDRKREKEELEEIRQRLLAEGHPDPDAELQRMEQEAERRRQPQIKQEPESEEEEEEKQEKEEKREEPMEEEEEPEQKPCLKPTLRPISSAPSVSSASGNATPNTPGDESPCGIIIPHENSPDQQQPEEHRPKIGLSLKLGASNSPGQPNSVKRKKLPVDSVFNKFEDEDSDDVPRKRKLVPLDYGEDDKNATKGTVNTEEKRKHIKSLIEKIPTAKPELFAYPLDWSIVDSILMERRIRPWINKKIIEYIGEEEATLVDFVCSKVMAHSSPQSILDDVAMVLDEEAEVFIVKMWRLLIYETEAKKIGLVK [RBM25]”, the “solubility in G1/S (log2)” value in the data set on HeLa Kyoto [1] is -1.08. Further, the results for the melting temperature with HeLa Kyoto [2] (cell cycle stage: G1/S) and in the data set with HeLa Kyoto [2] (cell cycle stage: mitosis) were 48.2 °C and 50.1 °C, respectively. Moreover, the thermal stability score is -1.1 in the data set on HeLa Kyoto [3] (setting [5]) and 1.79 with HeLa Kyoto [3] (cell cycle stage: mitosis). Also, the “solubility change mitosis (log2)” value in the data set on HeLa Kyoto [4] turned out to be 0.779.
As to “MSALCWGRGAAGLKRALRPCGRPGLPGKEGTAGGVCGPRRSSSASPQEQDQDRRKDWGHVELLEVLQARVRQLQAESVSEVVVNRVDVARLPECGSGDGSLQPPRKVQMGAKDATPVPCGRWAKILEKDKRTQQMRMQRLKAKLQMPFQSGEFKALTRRLQVEPRLLSKQMAGCLEDCTRQAPESPWEEQLARLLQEAPGKLSLDVEQAPSGQHSQAQLSGQQQRLLAFFKCCLLTDQLPLAHHLLVVHHGQRQKRKLLTLDMYNAVMLGWARQGAFKELVYVLFMVKDAGLTPDLLSYAAALQCMGRQDQDAGTIERCLEQMSQEGLKLQALFTAVLLSEEDRATVLKAVHKVKPTFSLPPQLPPPVNTSKLLRDVYAKDGRVSYPKLHLPLKTLQCLFEKQLHMELASRVCVVSVEKPTLPSKEVKHARKTLKTLRDQWEKALCRALRETKNRLEREVYEGRFSLYPFLCLLDEREVVRMLLQVLQALPAQGESFTTLARELSARTFSRHVVQRQRVSGQVQALQNHYRKYLCLLASDAEVPEPCLPRQYWEELGAPEALREQPWPLPVQMELGKLLAEMLVQATQMPCSLDKPHRSSRLVPVLYHVYSFRNVQQIGILKPHPAYVQLLEKAAEPTLTFEAVDVPMLCPPLPWTSPHSGAFLLSPTKLMRTVEGATQHQELLETCPPTALHGALDALTQLGNCAWRVNGRVLDLVLQLFQAKGCPQLGVPAPPSEAPQPPEAHLPHSAAPARKAELRRELAHCQKVAREMHSLRAEALYRLSLAQHLRDRVFWLPHNMDFRGRTYPCPPHFNHLGSDVARALLEFAQGRPLGPHGLDWLKIHLVNLTGLKKREPLRKRLAFAEEVMDDILDSADQPLTGRKWWMGAEEPWQTLACCMEVANAVRASDPAAYVSHLPVHQDGSCNGLQHYAALGRDSVGAASVNLEPSDVPQDVYSGVAAQVEVFRRQDAQRGMRVAQVLEGFITRKVVKQTVMTVVYGVTRYGGRLQIEKRLRELSDFPQEFVWEASHYLVRQVFKSLQEMFSGTRAIQHWLTESARLISHMGSVVEWVTPLGVPVIQPYRLDSKVKQIGGGIQSITYTHNGDISRKPNTRKQKNGFPPNFIHSLDSSHMMLTALHCYRKGLTFVSVHDCYWTHAADVSVMNQVCREQFVRLHSEPILQDLSRFLVKRFCSEPQKILEASQLKETLQAVPKPGAFDLEQVKRSTYFFS [POLRMT]”, in the data set with HeLa Kyoto [1], the “solubility in G1/S (log2)” value is -0.535. Also, the melting temperature in the data set with HeLa Kyoto [2] (cell cycle stage: G1/S) is 50.5 °C; with HeLa Kyoto [2] (cell cycle stage: mitosis), 49.2 °C. Also, the thermal stability score in the data set on HeLa Kyoto [3] (setting [5]) was -0.749; in the data set with HeLa Kyoto [3] (cell cycle stage: mitosis), 1.6. For the same substance, in the data set with HeLa Kyoto [4], the “solubility change mitosis (log2)” value was -0.0655.
